Read counts are not given, so values of variants with three or more changes are uncertain.
B1: CPEB3 Ribozyme (parent)
chain: UAACAGGGGGCCACAGCAGAAGCGUUCACGUCGCAGCCCCUGUCAGAUUCUGGUGAAUCUGCGAAUUCUGCUGUAUAUCUC

Variants of: B1
Experiment: self-cleavage, relative activity (ratio to wild type); higher = more cleavage; in vitro, sequencing
Procedure, shortened: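 Libraries of CPEB3 self-cleaving ribozyme mutants came from rounds of error-prone PCR and carried barcodes, which DNA sequencing matched to variants. In vitro transcription used T7 RNA polymerase at 37°C for 5 hours, with a further 15 min in DNase I before EDTA stopped the reaction; the ribozymes cleaved during both steps. The RNA was reverse transcribed with template switching and sequenced on Illumina. Relative activity is the cleaved/total read fraction of a variant divided by that of the unmutated ribozyme, averaged over three batches with at least 5 reads.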

Variant	self-cleavage
U1C G8A A20G C40A U51A U66C U80C	0.04
U1C C12G U76C	0.4
A2C A3G U31G U51A	0.71
A2G A3G C37U U48C U51A	0.17
U1C C14G U74C U80C	1.21
A2G A15U C29A A64G U69C	0.07
U1C G8A U49C A56G U67C U72A	0.04
A2G A20G U25C U58C G73A	0.62
U1C G9A G24A U80C	0.05
A2G A20G G52U A56U A65G U76C	0.06
A2C C11U U67C U76C	0.13
U1C A28C A45G A56G U58C C62U U78C	0.17
U1C U41G G46A U80C	0.35
U1C U43C U51C U69A U76A	0.28
A2G A18U C23U U43C A64G	0.07
A2G A20U A45C A75G U76A	0.11
A2C A13G U43A U51G U78A U80A	1.01
A2G C34G A47U U80A	0.28
A2G A20U U49C U54C C79A	0.24
U1C A28G U31C A35G	1.02
U1C U49C U69A	0.1
U1C U25C U54G U74C	0.51
U1C U43C A45U U60G U76C	0.24
U1C G10U A20G U69C	0.34

Variant	self-cleavage
A2G A13G U25C A56G A77G	0.55
U1C G7U U26A C44U U67C A75G A77U	0.04
A2G C12G A13G A35U G55A U69C	0.12
U1C U49C A56C	0.26
U1C U49C A56G	1
A2G A20U A56G	0.46
U1C A57G U58C U60C U72C	0.16
A2G C12U U26A C29G A35U U54C U58C	0.23
A2G A65U U69A U72A	0.16
U1C A21G U41C	0.49
U1C C11G A15U U41A A65G U69G	0.04
U1C G9A U66C U67A	0.05
A2G A18U G19A U60A U76C U78C	0.14
U1C C12U C17A U66C U69A	0.17
A2G A3G G6C U41A U48C A64G	0.47
U1C U54G A56U U78A	0.21
A2G C40A U72A	0.53
A2C A3U A35G A64G	1.21
U1C C11G A18G G52A A65G	0.08
A2G C11U A20G A56G U58C	0.35
A2G A13G A18G U49C U60C	0
U1C U25C U31C U41A	0.21
U1C G10A A18U U60C	0.15
U1C C11G G53A U54C U67A	0.07

Variant	self-cleavage
A2G A21G U31A U49C	0.06
A2C A47G U74C U78A	1.2
A2G A57G U67G	0.16
A2G A5G A64G U80A	0.61
U1C G16C A18G U25C U49C A56G	0.26
A2G A15G A45G U48C U80C	0.05
A2G A20G C32U	0.36
U1C G7A U31C U43C A47C A77U	0.06
U1C U51C A64G	0.74
A2G C23G C29A	0.33
A2G A56U A64G U80C	0.22
A2G A15U U49A U60C	0.14
A2G A45C U69C G73A	0.26
U1C A28U A35G	1.28
U1C G8C G30U A64G A75G	0.12
A2G A47G U80C	0.62
A2G C39U U43C U51C G53A	0.33
U1C G9C A56G A64G	0.27
A2G A15U A20G A21G U76C	0.11
A2G A18U A28U U41A	0.53
U1C A35U A57G	0.48
U1C C29U G33U U43C	0.13
U1G G9U A45U G70A	0.19
A2G A15G A21G U31A U43A	0.37

Variant	self-cleavage
A2G A13C U69A	0.47
U1C G16A A57G U69C G73U	0.16
U1C U26C A35G U58C U60C A64G	0.26
A2C A5U C27U A35G U69A	0.27
A2G A15G U26C U41A U58C U80C	0.08
A2G A18G G22U U43C U60C	0.26
U1C U25C U51C	0.14
U1C G8A U26A A47U C59U	0.04
A2C A18G C34G U41C A47U	0.06
A2C A13C A20G U43A A77U	0.37
A2G A64G G70C	0.23
U1G A64C A65U	0.31
U1C A45G A47G A56U A57G A75G U76C	0
A2G A5U U49C U54C U80C	0.41
U1C U25C U43A	0.23
A2G A15G A18U C62U U72A	0
U1C G8U U60A	0.27
U1C A35G U80C	1.22
A2G G6A A57G	0.09
A2G A5U C27G A64G	0.06
U1C G9A A20U A45U G52C A56C U67C	0.03
A2G A20G U51C U72C	0.36
A2G A20G A28U U41C A47U U54C	0.12
A2G C11A A13G A45G U51C	0.08

Variant	self-cleavage
A2G C14U U58C U60C U66C	0.14
A2G C11G U54C A75U	0.4
U1G A2G U26A	0.78
A2G C38U C40G U54G A65U G73U	0.04
A2G A18G A64G	0.54
U1C C32U U74C A75G	0.17
A2G A20G U41A A57U	0.41
U1C G22C U31C U51C G61C U72A	0.05
A2G A5G U54C	0.85
U1C C4U A64G	1.04
A2C C34A A65U U78C	0.06
A2G A5G A15U U58C U66C	0.08
U1C C29U U48C U66C	0.11
A2G C32A U41C U58C U72A	0.17
U1C C44U U66A	0.06
A2G A28U U54C A75U U76C	0.45
A2G C12U A15U U41A U54C	0.09
A2G A20G U25A U43C U80A	0.09
A2G A3G A13C A20G U51A	0.72
U1C U41A A47G A64G U80C	0.07
U1C G9U A20G G33A A45G U54A	0.09
U1C U31C U49C U58C U78C	0
U1C C11G U25C G30C U41C A57G A64G	0.04
U1C A28U U54C A65G U74A U80C	0.46

Variant	self-cleavage
A2G A21G U41A U48C	0.27
U1C U26C U54C	0.43
A2G A13G U31A U54A U60C U74C	0.09
U1C U31C U51C U58C	0.28
A2G A13U G16A U31A U41A U66A A75G	0.04
A2G C23U A65G	0.23
A2G A18C A35U A64U	0.45
U1G A28G U80A	0.97
U1C U26C U49C	0.42
A2G A5G U41A A45U A65C G73C	0.1
U1G U25C U60C A64U U69C G70U	0.14
A2G A18U U72A	0.23
A2G C17U A21G A35G	0.7
U1C A35G U69C	1.11
A2G A20U A28U G63A A75G	0.08
U1C C17U A20G C34U U72C	0.04
A2G A56U U80C	0.3
A2G A13U A35U U49C U60C A64G	0.11
U1G A20G U48C A75G A77G	0.07
U1C U31A A56G U58A U69A	0.15
A2G A15G A21G C23U A28G A57G U69A	0.24
A2G A18G U26C U41A	0.04
A2G A28G A35G U41A U78A	0.08
A2G G7C A57G U58C	0.08

Variant	self-cleavage
U1C G46U A64G U74C	0.4
U1C C23U U25A U26C U60C G70A	0.04
U1C U67C U69A	0.42
A2G G7C C11A U31A U43C U60G A75G	0.03
U1C U26A A35G U74C	1.37
U1C U25C C39U A64G U80C	0.07
U1C G9U A21G U43C A57C A65G	0.05
U1G A15U A21G A64U	0.17
A2G A3G A5U A13G A18G U41C	0.71
U1C G7A A15G A28G C62U U66C	0.03
A2G A28U U48C A56G	0.13
U1C A35G A45G U67A	0.23
U1C G22A U48C U54C	0.14
U1C C34G U49C	0.06
U1C U51C U54C A65G	0.42
U1C A64U U74A	0.39
U1C A20G U67C	0.74
U1C G9A A21G U67A U72C	0.2
U1C G42A U76C U80C	0.32
U1C G33U C39U A57G U66C	0.14
A2G A5G C11U A47G U49C A64G U66C	0.07
A2G A5U A35G C37U U49C A64G	0.43
U1C C29U U74C	0.78

Reference: the RNAGym collection of RNA variant scans (doi:10.1093/nar/gkz1192)
